PubChem BioAssay AID1347073 (National Center for Advancing Translational Sciences (NCATS), 2019)
About 200 (0.44%) of roughly 45,000 compounds were called active. Inconclusive results, whose numbers are uncertain, are shown with a selection of clear calls. Calls come from the whole dose curve; as a rule, active = well fitted activation curve with a large enough effect; inconclusive = small, poorly fitted or top-dose-only effect; inactive = no such curve, though single readings can be large or run the other way. A potency beside an inconclusive call is a rough fit, not a confirmed value.

Test: qHTS of TDP-43 Inhibitors: NCGC Sytravon Library Screen; note: nearly all actives have a fitted effect of over 55% in size; for growth rescue (activation): 0% is about no effect
Conditions: yeast TDP-43 toxicity rescue, BacTiter-Glo growth, 24 h; growth rescue (activation): at 46.1 µM (top of the series)
Procedure, shortened: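 TDP-43-expressing yeast, pregrown in raffinose, seeded at OD600 0.02 in galactose medium with compound for 24 hr at 30 deg C. Growth read by BacTiter-Glo luminescence, so rescue of toxicity appears as activation.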
Potency is the fitted concentration of half-maximal effect; tags give direction and shape of the fitted curve.

| SMILES | Potency | growth rescue (activation) |
| --- | --- | --- |
| COc1ccc(NC(=O)c2cc(S(=O)(=O)NCC3COc4ccccc4O3)ccc2F)cc1 (configuration not stated) | active: 25.1 µM | – |
| Nc1cc(S(=O)(=O)N2CCCCC2)ccc1Oc1ccc(Cl)cc1 | inconclusive: 22.4 µM [activator, single point] | – |
| CCN(c1ccc(C)cc1)S(=O)(=O)c1nnc(NC(=O)C2CCCCC2)s1 | inactive | – |
| Cc1ccc(-n2nnnc2Sc2nc([N+](=O)[O-])nn2C)cc1 | inconclusive: 35.5 µM [activator, single point] | – |
| O=Cc1ccc(OCc2cccc(C(F)(F)F)c2)cc1O | inconclusive: 35.5 µM [activator, single point] | – |
| Cc1ccc(F)cc1C(=O)N1CCCC(c2cc(C(=O)NCc3ccccc3)no2)C1 (configuration not stated) | inactive | – |
| N#C/C(=C\c1cccc(Br)c1)C(=O)N1CCCCC1 | active: 12.6 µM | – |
| O=S(=O)(NCCCSc1ccccc1)c1ccccc1F | inconclusive: 14.1 µM [activator, single point] | – |
| COc1ccc(OC)c(C(=O)c2c(C)oc3cc([N+](=O)[O-])c(O)c([N+](=O)[O-])c23)c1 | inconclusive: 35.5 µM [activator, single point] | – |
| COc1ccc(/C=C(\CC(=O)O)c2nc3ccccc3o2)cc1 | inconclusive: 35.5 µM [activator, single point] | – |
| O=C(Cc1cccc(C(F)(F)F)c1)NCc1cccc(Cl)c1 | inconclusive: 28.2 µM [activator, partial curve, poor fit] | – |
| Oc1[nH]c2ccc(Br)cc2c1N=NC(=S)Nc1ccc(F)cc1 | inconclusive: 11.2 µM [activator, single point] | – |
| Cc1cccc(C(O)c2ncc(-c3ccc(F)cc3)[nH]2)c1C (configuration not stated) | inactive | – |
| Cc1cccc(/C(N)=N/OC(=O)c2ccccc2Cl)c1 | inconclusive: 11.2 µM [activator, partial curve, poor fit] | – |
| Cc1ccccc1OCCn1cc(C(=O)O)c2ccccc21 | inconclusive: 11.2 µM [activator, single point] | – |
| CNc1ccc(-c2cccc(CO)c2)cn1 | inactive | – |
| O=C(/C=C/c1ccc([N+](=O)[O-])cc1)NCCSCc1ccco1 | inconclusive: 12.6 µM [activator, single point] | – |
| COc1ccc(NC(=O)C2(C)Cc3c(-c4ccc(N(C)C)cc4)ccnc3O2)cn1 (configuration not stated) | inactive | – |
| COc1cc(/C=C/C(=O)Nc2ccc(C)cc2)cc(OC)c1OC | inconclusive: 35.5 µM [activator, single point] | – |
| COc1cc2c(C#N)c(N3CCN(c4ccccc4OC)CC3)nc(N)c2c(N)n1 | inconclusive: 12.6 µM [activator, partial curve, poor fit] | – |
| Cc1ccc(S(=O)(=O)N(C(=O)c2ccncc2)c2ccc(OC(=O)c3ccncc3)cc2)cc1 | inconclusive: 6.31 µM [activator, partial curve, poor fit] | – |
| O=C(Nc1ccc(Cl)cc1)C1Cc2c(-c3cccc(F)c3)ccnc2O1 (configuration not stated) | inconclusive: 35.5 µM [activator, single point] | – |
| Cc1ccc(NC(=O)C(Cc2ccccc2)n2cccc2)cc1 (configuration not stated) | inconclusive: 17.8 µM [activator, partial curve, poor fit] | – |

| SMILES | Potency | growth rescue (activation) |
| --- | --- | --- |
| Cc1cc(NCc2ccccn2)n2ncc(-c3ccccc3)c2n1 | active: 8.91 µM | – |
| COc1cc(-c2cc(C(=O)N3CCCCCC3)c3ccccc3n2)cc(OC)c1OC | inconclusive: 11.2 µM [activator, partial curve, poor fit] | – |
| COc1ccccc1NS(=O)(=O)c1ccc(O)c(C(=O)OCC(=O)Nc2ccccc2F)c1 | inconclusive: 31.6 µM [activator, single point] | – |
| CC1(C(=O)NS(=O)(=O)c2cccs2)CCN1C(=O)c1ccco1 (configuration not stated) | inactive | – |
| CSc1nc2nc(-c3ccccc3)cc(C(F)(F)F)n2n1 | inconclusive: 12.6 µM [activator, partial curve, poor fit] | – |
| O=C1NC(CCc2ccccc2)C(=O)N1CCOc1cccc(Br)c1 (configuration not stated) | inconclusive: 15.8 µM [activator, single point] | – |
| Cc1ccccc1S(=O)(=O)NC(=O)C1(C)CCN1C(=O)C1(c2ccc(Cl)cc2)CC1 (configuration not stated) | – | inconclusive: 113% [activator] |
| CCNC(=O)COC(=O)c1csc2c1CCCC2 | inconclusive: 31.6 µM [activator, partial curve, poor fit] | – |
| CCn1cc(CNC(=O)c2cc(COc3ccc(F)cc3Cl)on2)cn1 | inconclusive: 10 µM [activator, partial curve, poor fit] | – |
| CC1(C)Cc2ccccc2-c2nc3ccccc3c(=O)n21 | inconclusive: 20 µM [activator, partial curve, poor fit] | – |
| Cc1cc(OCc2ccc(C(=O)NN=C3CCCC3)cc2)ccc1Cl | inconclusive: 15.8 µM [activator, partial curve, poor fit] | – |
| COc1ccc(CCNc2cc(N3CCN(C(=O)c4ccccc4OC)CC3)ccc2[N+](=O)[O-])cc1OC | inconclusive: 35.5 µM [activator, single point] | – |
| Cc1nnc(SCc2ccc(C(=O)Nc3cc(Cl)ccc3C)cc2)s1 | inconclusive: 12.6 µM [activator, partial curve, poor fit] | – |
| c1coc(-c2cc3nc(NCc4ccc5c(c4)OCO5)ccn3n2)c1 | inconclusive: 11.2 µM [activator, single point] | – |
| N#Cc1cc(-c2ccccc2)nc(NN)n1 | inconclusive: 35.5 µM [activator, single point] | – |
| CC1(C(=O)NCc2ccccc2)Cc2c(-c3ccc4c(c3)OCO4)ccnc2O1 (configuration not stated) | – | inconclusive: 74.5% [activator] |
| COc1ccccc1/C=N/NC(=O)c1c(-c2ccccc2)noc1C | inactive | – |
| Cc1nn(-c2ccccc2)c(N)c1N=Nc1ccc(Cl)cc1 | inconclusive: 6.31 µM [activator, partial curve] | – |
| CN(C(=O)CSCC(=O)Nc1ccc(Cl)cc1)C1CCCCC1 | inconclusive: 15.8 µM [activator, partial curve, poor fit] | – |
| CCCCNC(=O)C1(C)CCCCN1C(=O)c1csnn1 (configuration not stated) | inactive | – |
| COc1ccc(S(=O)(=O)N2CCCCC2)cc1NCC(=O)Nc1ccc(C)cc1 | inconclusive: 35.5 µM [activator, single point] | – |
| Cc1cc(Br)ccc1SCC(=O)OCC(=O)NC1CC1 | inconclusive: 12.6 µM [activator, partial curve, poor fit] | – |
| N/C(=N\OC(=O)N1c2ccccc2Sc2ccccc21)c1ccc(Br)cc1 | inconclusive: 12.6 µM [activator, single point] | – |

| SMILES | Potency | growth rescue (activation) |
| --- | --- | --- |
| CC(=O)n1cc(N(C(=O)CCl)c2ccc(C)cc2)c2ccccc21 | inconclusive: 25.1 µM [activator, single point] | – |
| CN(C)S(=O)(=O)Nc1cccc(NC(=O)CC23CC4CC(CC(C4)C2)C3)c1 | inactive | – |
| CC(=O)Nc1cncc(-c2ccccc2F)n1 | inactive | – |
| COc1ccc(/C=C/C(=O)NCCCc2ccccc2)cc1OC | inconclusive: 35.5 µM [activator, single point] | – |
| Cc1cc(F)ccc1NCC(=O)Nc1ccc(Br)cc1C | inconclusive: 20 µM [activator, partial curve, poor fit] | – |
| Cc1cccc(NC(=O)C2CCCN(S(=O)(=O)c3ccc4c(c3)oc(=O)n4C)C2)c1 (configuration not stated) | inconclusive: 35.5 µM [activator, single point] | – |
| CCOC(=O)N1CCN(C(=O)CNC(=O)c2nn(-c3ccc(OC)c(Cl)c3)c(=O)c3ccccc23)CC1 | inactive | – |
| CC(Oc1ccc2ccccc2c1)C(=O)N/N=C/c1cccnc1 (configuration not stated) | inconclusive: 17.8 µM [activator, partial curve, poor fit] | – |
| CN1/C(=C\C(=S)Nc2ccccc2)C(C)(C)c2ccccc21 | inconclusive: 17.8 µM [activator, single point] | – |
| Cc1cc(C)c(S(=O)(=O)NCc2csc(-c3ccccc3)n2)c(C)c1 | active: 22.4 µM | – |
| O=C(CC(=O)Nc1ccccc1C(=O)O)NNC(=O)Cc1ccccc1 | inconclusive: 35.5 µM [activator, single point] | – |
| Cc1ccccc1NC(=O)Cn1c(=O)n(CCC(=O)NCc2ccc3c(c2)OCO3)c(=O)c2sccc21 | inactive | – |
| CC(C)CC(=O)N/C(N)=N/c1nc2ccccc2o1 | inconclusive: 12.6 µM [activator, single point] | – |
| CC(=O)Nc1ccc(S(=O)(=O)NCC(=O)OCC(=O)NC(=O)c2cccn2C)cc1 | inconclusive: 35.5 µM [activator, single point] | – |
| COc1ccc(C(C)(C)C)cc1NC(=O)c1[nH]c(C)c(C(C)=O)c1C | inconclusive: 11.2 µM [activator, partial curve, poor fit] | – |
| C=CCn1c(SCC(=O)NC23CC4CC(CC(C4)C2)C3)nc(O)cc1=O | inconclusive: 35.5 µM [activator, single point] | – |
| CC(Sc1nnc(Cc2cccs2)n1C1CCCCC1)C(=O)N1CCc2ccccc21 (configuration not stated) | inconclusive: 12.6 µM [activator, partial curve, poor fit] | – |
| COC(=O)COc1cccc(NC(=O)c2cccc(C)c2)c1 | inactive | – |
| COc1cc(C(c2c(NC(=O)c3ccco3)sc(C)c2C)N2CCOCC2)cc(OC)c1OC (configuration not stated) | inactive | – |
| CC(C)Oc1cccc(C(=O)NC(=S)Nc2ccccc2)c1 | inconclusive: 15.8 µM [activator, partial curve, poor fit] | – |
| Cc1nc2sc(C(=O)c3ccccc3)c(N)c2c2c1CCCC2 | inconclusive: 11.2 µM [activator, partial curve, poor fit] | – |
